Experimental data: publication PMC6761150
These are yes or no findings as the source states them, for the method shown. Binding seen in cells or lysates may run through a third protein. Some results given as binding are weak or reduced against the parent protein; the word gives no strength. For part of these data: Sequences can lack the tags named with a protein.

By UniProt entry, the sequences of proteins in these tests, tags left out. Where a name states a change or a piece, a line headed by the entry shows the natural chain unless it says otherwise.
UniProt P45481: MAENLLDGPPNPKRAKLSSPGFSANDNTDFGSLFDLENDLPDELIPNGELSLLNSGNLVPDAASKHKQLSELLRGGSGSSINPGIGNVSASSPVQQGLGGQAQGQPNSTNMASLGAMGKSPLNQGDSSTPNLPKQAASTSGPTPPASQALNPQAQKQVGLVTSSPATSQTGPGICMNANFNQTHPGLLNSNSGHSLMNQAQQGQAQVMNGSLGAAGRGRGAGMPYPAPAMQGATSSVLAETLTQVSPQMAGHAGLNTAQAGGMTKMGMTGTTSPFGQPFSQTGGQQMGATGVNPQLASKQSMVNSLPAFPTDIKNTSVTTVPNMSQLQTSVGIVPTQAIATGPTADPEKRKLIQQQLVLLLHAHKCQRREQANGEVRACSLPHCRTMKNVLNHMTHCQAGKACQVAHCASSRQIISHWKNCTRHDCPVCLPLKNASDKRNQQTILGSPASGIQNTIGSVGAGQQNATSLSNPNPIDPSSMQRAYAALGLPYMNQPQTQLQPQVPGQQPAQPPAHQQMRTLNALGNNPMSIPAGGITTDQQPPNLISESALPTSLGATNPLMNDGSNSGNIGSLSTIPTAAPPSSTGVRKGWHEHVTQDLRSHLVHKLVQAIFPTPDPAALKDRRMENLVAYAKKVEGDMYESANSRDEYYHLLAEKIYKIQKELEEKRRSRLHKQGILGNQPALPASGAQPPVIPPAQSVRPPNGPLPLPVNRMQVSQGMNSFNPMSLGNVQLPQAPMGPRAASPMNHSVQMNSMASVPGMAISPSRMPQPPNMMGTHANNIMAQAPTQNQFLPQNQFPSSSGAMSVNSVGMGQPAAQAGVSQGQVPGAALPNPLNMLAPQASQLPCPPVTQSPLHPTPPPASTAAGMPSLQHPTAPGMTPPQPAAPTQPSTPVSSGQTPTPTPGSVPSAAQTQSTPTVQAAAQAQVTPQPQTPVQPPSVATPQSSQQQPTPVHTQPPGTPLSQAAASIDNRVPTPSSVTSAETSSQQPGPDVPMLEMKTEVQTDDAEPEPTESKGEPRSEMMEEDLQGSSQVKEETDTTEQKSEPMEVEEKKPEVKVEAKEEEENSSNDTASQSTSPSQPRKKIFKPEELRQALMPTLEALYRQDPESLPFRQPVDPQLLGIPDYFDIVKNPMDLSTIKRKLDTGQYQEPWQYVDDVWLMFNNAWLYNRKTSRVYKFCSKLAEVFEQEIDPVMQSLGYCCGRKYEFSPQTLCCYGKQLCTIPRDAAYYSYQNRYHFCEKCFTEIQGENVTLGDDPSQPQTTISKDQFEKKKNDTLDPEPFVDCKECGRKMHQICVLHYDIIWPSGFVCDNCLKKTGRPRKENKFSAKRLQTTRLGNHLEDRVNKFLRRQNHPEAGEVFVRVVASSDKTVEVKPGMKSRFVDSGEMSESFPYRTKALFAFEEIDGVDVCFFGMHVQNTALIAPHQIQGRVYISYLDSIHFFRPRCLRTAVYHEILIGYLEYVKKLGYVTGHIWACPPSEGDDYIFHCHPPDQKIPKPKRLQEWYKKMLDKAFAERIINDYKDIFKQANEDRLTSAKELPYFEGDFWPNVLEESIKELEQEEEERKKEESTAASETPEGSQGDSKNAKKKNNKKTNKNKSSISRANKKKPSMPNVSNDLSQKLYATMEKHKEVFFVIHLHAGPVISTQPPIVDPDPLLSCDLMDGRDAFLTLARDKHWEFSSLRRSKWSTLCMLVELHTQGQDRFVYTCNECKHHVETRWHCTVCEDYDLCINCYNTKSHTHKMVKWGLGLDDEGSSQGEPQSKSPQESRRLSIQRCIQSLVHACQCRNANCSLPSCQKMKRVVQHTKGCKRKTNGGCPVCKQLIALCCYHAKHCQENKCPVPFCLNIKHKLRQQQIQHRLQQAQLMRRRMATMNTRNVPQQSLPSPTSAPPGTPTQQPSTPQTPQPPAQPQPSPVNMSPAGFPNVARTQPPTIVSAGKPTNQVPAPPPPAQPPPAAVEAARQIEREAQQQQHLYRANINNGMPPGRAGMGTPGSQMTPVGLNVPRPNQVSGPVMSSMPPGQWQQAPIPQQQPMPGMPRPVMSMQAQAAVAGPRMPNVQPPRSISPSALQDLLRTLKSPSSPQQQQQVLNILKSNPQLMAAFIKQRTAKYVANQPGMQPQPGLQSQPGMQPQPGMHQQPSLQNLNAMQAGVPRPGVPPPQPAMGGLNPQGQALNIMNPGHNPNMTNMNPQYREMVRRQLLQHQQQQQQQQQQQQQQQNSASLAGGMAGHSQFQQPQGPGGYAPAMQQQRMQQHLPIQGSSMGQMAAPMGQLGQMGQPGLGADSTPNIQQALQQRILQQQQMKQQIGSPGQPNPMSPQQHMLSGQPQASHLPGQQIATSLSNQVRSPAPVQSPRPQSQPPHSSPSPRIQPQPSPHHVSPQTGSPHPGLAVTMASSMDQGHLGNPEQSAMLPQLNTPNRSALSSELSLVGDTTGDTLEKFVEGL

Legend:
[1] = target: T1, Flag-Stat6 (wild type) (mouse) (UniProt P52633); assay: co-IP; 293T cells transfected with the expression vectors, with or without Trim24 co-expressed; lysed in RIPA buffer; IP with anti-Flag, protein-A/G magnetic beads, immunoblot with anti-HA and anti-Flag
T1 sequence: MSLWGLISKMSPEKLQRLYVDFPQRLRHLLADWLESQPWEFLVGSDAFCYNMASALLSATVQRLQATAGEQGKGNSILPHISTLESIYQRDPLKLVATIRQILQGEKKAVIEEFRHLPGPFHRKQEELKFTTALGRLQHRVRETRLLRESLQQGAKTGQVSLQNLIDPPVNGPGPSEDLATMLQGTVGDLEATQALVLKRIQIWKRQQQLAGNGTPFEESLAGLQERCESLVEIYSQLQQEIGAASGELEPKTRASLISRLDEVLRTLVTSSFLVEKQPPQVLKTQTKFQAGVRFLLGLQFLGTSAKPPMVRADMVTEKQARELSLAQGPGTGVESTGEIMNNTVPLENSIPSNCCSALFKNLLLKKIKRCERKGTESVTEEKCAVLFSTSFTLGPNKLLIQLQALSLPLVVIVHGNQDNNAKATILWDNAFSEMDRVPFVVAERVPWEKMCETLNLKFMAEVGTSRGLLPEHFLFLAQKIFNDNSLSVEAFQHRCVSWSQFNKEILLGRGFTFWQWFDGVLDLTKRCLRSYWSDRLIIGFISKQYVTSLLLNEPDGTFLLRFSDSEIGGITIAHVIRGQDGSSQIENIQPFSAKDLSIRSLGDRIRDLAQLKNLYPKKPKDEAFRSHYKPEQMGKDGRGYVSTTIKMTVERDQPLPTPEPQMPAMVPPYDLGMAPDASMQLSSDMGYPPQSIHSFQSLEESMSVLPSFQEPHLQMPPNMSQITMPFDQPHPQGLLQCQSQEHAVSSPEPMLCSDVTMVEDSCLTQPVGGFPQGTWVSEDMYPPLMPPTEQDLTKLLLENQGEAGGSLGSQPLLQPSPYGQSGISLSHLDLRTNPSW

[2] = substrate: CBP, endogenous in immortalized mouse bone marrow-derived macrophages (mouse (endogenous in iBMDMs)) (UniProt P45481); assay: co-IP; endogenous proteins in control iBMDMs, unstimulated or stimulated with IL-4 for 30 min; lysed in RIPA buffer; IP with anti-CBP, immunoblot with anti-CBP, anti-Stat6 and anti-Trim24
[3] = substrate: CBP, endogenous in immortalized mouse bone marrow-derived macrophages (mouse (endogenous in iBMDMs)) (UniProt P45481); assay: co-IP; endogenous proteins in Trim24-knockdown iBMDMs, unstimulated or stimulated with IL-4 for 30 min; IP with anti-CBP, immunoblot with anti-CBP, anti-Stat6 and anti-Trim24
[4] = substrate: CBP K119R mutant as tested with Trim24 in Supplementary Fig. 2f (UniProt P45481); assay: co-IP; Supplementary Fig. 2f; legend not shown; co-IP is taken as the method because it is the only interaction method in the paper's methods
[5] = substrate: CBP (wild type) as tested with Trim24 in Supplementary Fig. 2f (UniProt P45481); assay: as above

In the case of “HA-CBP (wild type) (from UniProt P45481 1-2441)”, the binding [1] is reported as “binds”.

B1: Stat6, endogenous in immortalized mouse bone marrow-derived macrophages (protein, UniProt P52633 1-837)
chain: MSLWGLISKMSPEKLQRLYVDFPQRLRHLLADWLESQPWEFLVGSDAFCYNMASALLSATVQRLQATAGEQGKGNSILPHISTLESIYQRDPLKLVATIRQILQGEKKAVIEEFRHLPGPFHRKQEELKFTTALGRLQHRVRETRLLRESLQQGAKTGQVSLQNLIDPPVNGPGPSEDLATMLQGTVGDLEATQALVLKRIQIWKRQQQLAGNGTPFEESLAGLQERCESLVEIYSQLQQEIGAASGELEPKTRASLISRLDEVLRTLVTSSFLVEKQPPQVLKTQTKFQAGVRFLLGLQFLGTSAKPPMVRADMVTEKQARELSLAQGPGTGVESTGEIMNNTVPLENSIPSNCCSALFKNLLLKKIKRCERKGTESVTEEKCAVLFSTSFTLGPNKLLIQLQALSLPLVVIVHGNQDNNAKATILWDNAFSEMDRVPFVVAERVPWEKMCETLNLKFMAEVGTSRGLLPEHFLFLAQKIFNDNSLSVEAFQHRCVSWSQFNKEILLGRGFTFWQWFDGVLDLTKRCLRSYWSDRLIIGFISKQYVTSLLLNEPDGTFLLRFSDSEIGGITIAHVIRGQDGSSQIENIQPFSAKDLSIRSLGDRIRDLAQLKNLYPKKPKDEAFRSHYKPEQMGKDGRGYVSTTIKMTVERDQPLPTPEPQMPAMVPPYDLGMAPDASMQLSSDMGYPPQSIHSFQSLEESMSVLPSFQEPHLQMPPNMSQITMPFDQPHPQGLLQCQSQEHAVSSPEPMLCSDVTMVEDSCLTQPVGGFPQGTWVSEDMYPPLMPPTEQDLTKLLLENQGEAGGSLGSQPLLQPSPYGQSGISLSHLDLRTNPSW
For B1, the binding [2] was “binds” and the binding [3] was “no binding (condition: Trim24 knockdown)”.

B2: Trim24, endogenous in immortalized mouse bone marrow-derived macrophages (protein, UniProt Q64127 1-1051)
chain: MEVAVEKAAAAAAPAGGPAAAAPSGENEAESRQGPDSESGGEASRLNLLDTCAVCHQNIQSRVPKLLPCLHSFCQRCLPAPQRYLMLTAPALGSAETPPPAPAPAPAPGSPAGGPSPFATQVGVIRCPVCSQECAERHIIDNFFVKDTTEVPSSTVEKSNQVCTSCEDNAEANGFCVECVEWLCKTCIRAHQRVKFTKDHTVRQKEEVSPEAVGVTSQRPVFCPFHKKEQLKLYCETCDKLTCRDCQLLEHKEHRYQFIEEAFQNQKVIIDTLITKLMEKTKYIKYTGNQIQNRIIEINQNQKQVEQDIKVAIFTLMVEINKKGKALLHQLESLAKDHRMKLMQQQQEVAGLSKQLEHVMHFSKWAVSSGSSTALLYSKRLITYRLRHLLRARCDASPVTNTTIQFHCDPSFWAQNIINLGSLVIEDKESQPQMPKQNPVVEQSSQPPGGLPSNQLSKFPTQISLAQLRLQHIQQQVMAQRQQVQRRPAPVGLPNPRMQGPIQQPSISHQHPPPRLINFQNHSPKPNGPVLPPYPQQLRYSPSQNVPRQTTIKPNPLQMAFLAQQAIKQWQISSVQAPPTTASSSSSTPSSPTITSAAGYDGKAFSSPMIDLSAPVGGSYNLPSLPDIDCSSTIMLDNIARKDTGVDHAQPRPPSNRTVQSPNSSVPSPGLAGPVTMTSVHPPIRSPSASSVGSRGSSGSSSKPAGADSTHKVPVVMLEPIRIKQENSGPPENYDFPVVIVKQESDEESRPQNTNYPRSILTSLLLNSSQSSASEETVLRSDAPDSTGDQPGLHQENSSNGKSEWSDASQKSPVHVGETRKEDDPNEDWCAVCQNGGELLCCEKCPKVFHLTCHVPTLTNFPSGEWICTFCRDLSKPEVDYDCDVPSHHSEKRKSEGLTKLTPIDKRKCERLLLFLYCHEMSLAFQDPVPLTVPDYYKIIKNPMDLSTIKKRLQEDYCMYTKPEDFVADFRLIFQNCAEFNEPDSEVANAGIKLESYFEELLKNLYPEKRFPKVEFRHEAEDCKFSDDSDDDFVQPRKKRLKSTEDRQLLK
In the case of B2, the binding [2] is reported as “binds”.

B3: HA-Trim24 (full length) (protein, UniProt Q64127-1 1-1051)
chain: MEVAVEKAAAAAAPAGGPAAAAPSGENEAESRQGPDSESGGEASRLNLLDTCAVCHQNIQSRVPKLLPCLHSFCQRCLPAPQRYLMLTAPALGSAETPPPAPAPAPAPGSPAGGPSPFATQVGVIRCPVCSQECAERHIIDNFFVKDTTEVPSSTVEKSNQVCTSCEDNAEANGFCVECVEWLCKTCIRAHQRVKFTKDHTVRQKEEVSPEAVGVTSQRPVFCPFHKKEQLKLYCETCDKLTCRDCQLLEHKEHRYQFIEEAFQNQKVIIDTLITKLMEKTKYIKYTGNQIQNRIIEINQNQKQVEQDIKVAIFTLMVEINKKGKALLHQLESLAKDHRMKLMQQQQEVAGLSKQLEHVMHFSKWAVSSGSSTALLYSKRLITYRLRHLLRARCDASPVTNTTIQFHCDPSFWAQNIINLGSLVIEDKESQPQMPKQNPVVEQSSQPPGGLPSNQLSKFPTQISLAQLRLQHIQQQVMAQRQQVQRRPAPVGLPNPRMQGPIQQPSISHQHPPPRLINFQNHSPKPNGPVLPPYPQQLRYSPSQNVPRQTTIKPNPLQMAFLAQQAIKQWQISSVQAPPTTASSSSSTPSSPTITSAAGYDGKAFSSPMIDLSAPVGGSYNLPSLPDIDCSSTIMLDNIARKDTGVDHAQPRPPSNRTVQSPNSSVPSPGLAGPVTMTSVHPPIRSPSASSVGSRGSSGSSSKPAGADSTHKVPVVMLEPIRIKQENSGPPENYDFPVVIVKQESDEESRPQNTNYPRSILTSLLLNSSQSSASEETVLRSDAPDSTGDQPGLHQENSSNGKSEWSDASQKSPVHVGETRKEDDPNEDWCAVCQNGGELLCCEKCPKVFHLTCHVPTLTNFPSGEWICTFCRDLSKPEVDYDCDVPSHHSEKRKSEGLTKLTPIDKRKCERLLLFLYCHEMSLAFQDPVPLTVPDYYKIIKNPMDLSTIKKRLQEDYCMYTKPEDFVADFRLIFQNCAEFNEPDSEVANAGIKLESYFEELLKNLYPEKRFPKVEFRHEAEDCKFSDDSDDDFVQPRKKRLKSTEDRQLLK
With B3 the binding [4] was “binds” and the binding [5] was “binds”.
